# From publication PMC10984862
# Protein sequences, listed by entry. Tags and fused reporters are not part of them. Residues count along the entry.
# UniProt Q8LPS5, residues 275-572: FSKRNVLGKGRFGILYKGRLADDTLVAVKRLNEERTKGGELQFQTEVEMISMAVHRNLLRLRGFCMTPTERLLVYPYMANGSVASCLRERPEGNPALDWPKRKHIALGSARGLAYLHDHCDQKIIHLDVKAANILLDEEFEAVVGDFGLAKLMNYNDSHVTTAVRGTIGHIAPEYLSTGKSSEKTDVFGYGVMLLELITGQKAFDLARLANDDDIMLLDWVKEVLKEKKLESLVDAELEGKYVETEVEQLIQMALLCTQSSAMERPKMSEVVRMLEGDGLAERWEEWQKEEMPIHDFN
# UniProt Q9FL28, residues 870-1155: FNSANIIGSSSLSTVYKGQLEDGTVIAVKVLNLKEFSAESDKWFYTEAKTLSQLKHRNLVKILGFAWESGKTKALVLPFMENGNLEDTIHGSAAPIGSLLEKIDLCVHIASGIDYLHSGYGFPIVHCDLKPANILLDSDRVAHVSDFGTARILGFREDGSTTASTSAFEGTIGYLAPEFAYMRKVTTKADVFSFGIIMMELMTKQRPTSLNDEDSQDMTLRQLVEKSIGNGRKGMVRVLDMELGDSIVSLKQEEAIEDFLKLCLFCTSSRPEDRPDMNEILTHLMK
# UniProt Q39026: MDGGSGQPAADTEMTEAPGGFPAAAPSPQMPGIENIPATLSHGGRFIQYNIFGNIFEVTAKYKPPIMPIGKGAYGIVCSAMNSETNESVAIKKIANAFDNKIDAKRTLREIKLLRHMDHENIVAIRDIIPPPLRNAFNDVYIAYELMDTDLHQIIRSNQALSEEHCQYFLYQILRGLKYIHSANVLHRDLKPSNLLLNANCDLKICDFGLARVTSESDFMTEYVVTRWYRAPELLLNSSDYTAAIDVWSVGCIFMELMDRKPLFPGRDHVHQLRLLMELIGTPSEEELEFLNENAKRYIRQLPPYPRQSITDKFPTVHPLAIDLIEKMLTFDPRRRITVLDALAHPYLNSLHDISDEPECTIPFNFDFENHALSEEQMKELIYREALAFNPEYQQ
# Changes are numbered by the printed parent chain. No constants are given. Whether binding was seen depends on the method and setting. For some of these results: In cells and extracts the contact can be indirect. Some entries that bind do so weakly or less than the wild type. Where a sequence is shown, tags or fusion partners need not be part of it.
# T1: BAK1 KD (luciferase complementation construct) (Arabidopsis) (UniProt Q94F62)
# T1 sequence: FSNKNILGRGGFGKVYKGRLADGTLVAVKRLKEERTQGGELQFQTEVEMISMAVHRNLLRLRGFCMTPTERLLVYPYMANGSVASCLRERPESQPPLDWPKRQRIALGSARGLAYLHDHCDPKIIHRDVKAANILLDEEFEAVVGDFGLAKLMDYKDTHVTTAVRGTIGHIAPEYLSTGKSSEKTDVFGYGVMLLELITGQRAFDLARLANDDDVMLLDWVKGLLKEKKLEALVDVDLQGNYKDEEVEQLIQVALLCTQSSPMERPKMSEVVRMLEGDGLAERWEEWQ
# T2: BD-PP2C15 (Arabidopsis) (UniProt Q9M9C6)
# T2 sequence: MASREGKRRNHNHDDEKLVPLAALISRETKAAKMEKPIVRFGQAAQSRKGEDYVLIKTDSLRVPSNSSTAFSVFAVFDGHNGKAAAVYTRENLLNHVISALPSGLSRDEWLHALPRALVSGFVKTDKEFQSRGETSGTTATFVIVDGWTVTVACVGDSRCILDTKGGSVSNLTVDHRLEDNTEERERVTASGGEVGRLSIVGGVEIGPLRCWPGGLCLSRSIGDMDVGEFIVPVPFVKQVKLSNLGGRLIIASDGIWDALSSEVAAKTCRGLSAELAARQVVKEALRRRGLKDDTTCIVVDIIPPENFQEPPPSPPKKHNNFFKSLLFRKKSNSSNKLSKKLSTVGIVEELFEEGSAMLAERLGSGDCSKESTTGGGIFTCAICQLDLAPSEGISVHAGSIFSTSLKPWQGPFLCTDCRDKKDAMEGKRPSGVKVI
# B1: PP2C15 (luciferase complementation construct) (enzyme, UniProt Q9M9C6 1-436)
# chain: T2 sequence
# B2: AD-BAK1 KD (domain or fragment, UniProt Q94F62 289-576)
# chain: T1 sequence
# B3: MAPK3 (enzyme, UniProt Q39023 1-370)
# chain: MNTGGGQYTDFPAVETHGGQFISYDIFGSLFEITSKYRPPIIPIGRGAYGIVCSVLDTETNELVAMKKIANAFDNHMDAKRTLREIKLLRHLDHENIIAIRDVVPPPLRRQFSDVYISTELMDTDLHQIIRSNQSLSEEHCQYFLYQLLRGLKYIHSANIIHRDLKPSNLLLNANCDLKICDFGLARPTSENDFMTEYVVTRWYRAPELLLNSSDYTAAIDVWSVGCIFMELMNRKPLFPGKDHVHQMRLLTELLGTPTESDLGFTHNEDAKRYIRQLPNFPRQPLAKLFSHVNPMAIDLVDRMLTFDPNRRITVEQALNHQYLAKLHDPNDEPICQKPFSFEFEQQPLDEEQIKEMIYQEAIALNPTYG
# B4: SERK4 KD (domain or fragment, UniProt Q9SKG5 294-591)
# chain: FSNKNVLGRGGFGKVYKGRLADGNLVAVKRLKEERTKGGELQFQTEVEMISMAVHRNLLRLRGFCMTPTERLLVYPYMANGSVASCLRERPEGNPALDWPKRKHIALGSARGLAYLHDHCDQKIIHRDVKAANILLDEEFEAVVGDFGLAKLMNYNDSHVTTAVRGTIGHIAPEYLSTGKSSEKTDVFGYGVMLLELITGQKAFDLARLANDDDIMLLDWVKEVLKEKKLESLVDAELEGKYVETEVEQLIQMALLCTQSSAMERPKMSEVVRMLEGDGLAERWEEWQKEEMPIHDFN
# B5: SERK5 KD (domain or fragment, UniProt Q8LPS5 275-572)
# chain: B4 chain with N3K, K4R, R9K, G11R, K14I, V15L, G23D, N24T, K32N, R127L
# B6: IOS1 KD (domain or fragment, UniProt Q9C8I6 586-858)
# chain: NNFERVLGRGGFGVVYYGVLNNEPVAVKMLTESTALGYKQFKAEVELLLRVHHKDLTCLVGYCEEGDKMSLIYEFMANGDLKEHLSGKRGPSILTWEGRLRIAAESAQGLEYLHNGCKPQIVHRDIKTTNILLNEKFQAKLADFGLSRSFPLGTETHVSTIVAGTPGYLDPEYYRTNWLTEKSDVFSFGVVLLELVTNQPVIDMKREKSHIAEWVGLMLSRGDINSIVDPKLQGDFDPNTIWKVVETAMTCLNPSSSRRPTMTQVVMDLKECL
# B7: SERK1 KD (domain or fragment, UniProt Q94AG2 302-589)
# chain: FSNKNILGRGGFGKVYKGRLADGTLVAVKRLKEERTPGGELQFQTEVEMISMAVHRNLLRLRGFCMTPTERLLVYPYMANGSVASCLRERPPSQPPLDWPTRKRIALGSARGLSYLHDHCDPKIIHRDVKAANILLDEEFEAVVGDFGLAKLMDYKDTHVTTAVRGTIGHIAPEYLSTGKSSEKTDVFGYGIMLLELITGQRAFDLARLANDDDVMLLDWVKGLLKEKKLEMLVDPDLQTNYEERELEQVIQVALLCTQGSPMERPKMSEVVRMLEGDGLAEKWDEWQ
# B8: SERK2 KD (domain or fragment, UniProt Q9XIC7 305-592)
# chain: FSNKNILGRGGFGKVYKGRLADGTLVAVKRLKEERTPGGELQFQTEVEMISMAVHRNLLRLRGFCMTPTERLLVYPYMANGSVASCLRERPPSQLPLAWSIRQQIALGSARGLSYLHDHCDPKIIHRDVKAANILLDEEFEAVVGDFGLARLMDYKDTHVTTAVRGTIGHIAPEYLSTGKSSEKTDVFGYGIMLLELITGQRAFDLARLANDDDVMLLDWVKGLLKEKKLEMLVDPDLQSNYTEAEVEQLIQVALLCTQSSPMERPKMSEVVRMLEGDGLAEKWDEWQ
# Molecular target: T1, BAK1 KD (luciferase complementation construct) (Arabidopsis)
# Assay: split reporter; firefly luciferase complementation assay (LCA) in N. benthamiana leaves
row,Molecule,binding
1,B1,binds

# Molecular target: T2, BD-PP2C15 (Arabidopsis)
# Assay: two-hybrid; yeast two-hybrid in S. cerevisiae AH109; BD-PP2C15 against AD fusions; growth on SD-LWH or SD-LWHA plates, X-Gal staining, 28°C
row,Molecule,binding
1,FLS2 KD (from UniProt Q9FL28 870-1155) (domain or fragment),no binding
2,MAPK6 (from UniProt Q39026 1-395) (enzyme),no binding
3,B2,binds
4,B3,no binding
5,B4,no binding
6,B5,no binding
7,B6,no binding
8,B7,no binding
9,B8,no binding
